Measurements as given in publication PMC8809606.
Substitutions are numbered along the chain they refer to. Results are given in words; binding and its absence hold for the method and conditions named. For some assays here: Binding seen in cells or lysates may run through a third protein. Some binding calls cover weakened binding; strength is not graded here. For some assays here: Tags and fused reporters may be left off the sequences shown. Each block holds one substance with its values, some of them ahead of it.

By UniProt entry, the sequences of proteins in these tests, tags left out. Where a name states a change or a piece, a line headed by the entry shows the natural chain unless it says otherwise.
UniProt P37231: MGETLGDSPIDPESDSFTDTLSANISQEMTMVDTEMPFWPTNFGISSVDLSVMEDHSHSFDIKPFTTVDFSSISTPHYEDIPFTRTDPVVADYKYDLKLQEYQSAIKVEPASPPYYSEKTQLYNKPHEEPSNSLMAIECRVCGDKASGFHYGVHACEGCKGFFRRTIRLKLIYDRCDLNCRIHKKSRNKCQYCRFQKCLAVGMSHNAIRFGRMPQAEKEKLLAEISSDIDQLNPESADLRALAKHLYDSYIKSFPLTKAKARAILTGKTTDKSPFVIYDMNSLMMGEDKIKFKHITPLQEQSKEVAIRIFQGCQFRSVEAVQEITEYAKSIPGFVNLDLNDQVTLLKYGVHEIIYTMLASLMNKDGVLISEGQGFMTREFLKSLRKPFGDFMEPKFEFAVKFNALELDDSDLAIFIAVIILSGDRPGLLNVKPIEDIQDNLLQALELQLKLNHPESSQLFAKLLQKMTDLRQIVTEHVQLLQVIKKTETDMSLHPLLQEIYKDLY

Assays:
[1] = molecular target: Flag-Rab2A (wild type), stably expressed in HepG2 cells (UniProt P61019); assay: pull-down; in vitro binding assay in tubes: GST-PPARγ2 purified from a prokaryotic expression system, Flag-tagged protein pulled down with anti-Flag beads from HepG2 cells, analysed by immunoblotting; both purified
[2] = molecular target: T1, Flag-TBC1D1 (wild type), stably expressed in HepG2 cells (human) (UniProt Q86TI0); assay: as above
T1 sequence: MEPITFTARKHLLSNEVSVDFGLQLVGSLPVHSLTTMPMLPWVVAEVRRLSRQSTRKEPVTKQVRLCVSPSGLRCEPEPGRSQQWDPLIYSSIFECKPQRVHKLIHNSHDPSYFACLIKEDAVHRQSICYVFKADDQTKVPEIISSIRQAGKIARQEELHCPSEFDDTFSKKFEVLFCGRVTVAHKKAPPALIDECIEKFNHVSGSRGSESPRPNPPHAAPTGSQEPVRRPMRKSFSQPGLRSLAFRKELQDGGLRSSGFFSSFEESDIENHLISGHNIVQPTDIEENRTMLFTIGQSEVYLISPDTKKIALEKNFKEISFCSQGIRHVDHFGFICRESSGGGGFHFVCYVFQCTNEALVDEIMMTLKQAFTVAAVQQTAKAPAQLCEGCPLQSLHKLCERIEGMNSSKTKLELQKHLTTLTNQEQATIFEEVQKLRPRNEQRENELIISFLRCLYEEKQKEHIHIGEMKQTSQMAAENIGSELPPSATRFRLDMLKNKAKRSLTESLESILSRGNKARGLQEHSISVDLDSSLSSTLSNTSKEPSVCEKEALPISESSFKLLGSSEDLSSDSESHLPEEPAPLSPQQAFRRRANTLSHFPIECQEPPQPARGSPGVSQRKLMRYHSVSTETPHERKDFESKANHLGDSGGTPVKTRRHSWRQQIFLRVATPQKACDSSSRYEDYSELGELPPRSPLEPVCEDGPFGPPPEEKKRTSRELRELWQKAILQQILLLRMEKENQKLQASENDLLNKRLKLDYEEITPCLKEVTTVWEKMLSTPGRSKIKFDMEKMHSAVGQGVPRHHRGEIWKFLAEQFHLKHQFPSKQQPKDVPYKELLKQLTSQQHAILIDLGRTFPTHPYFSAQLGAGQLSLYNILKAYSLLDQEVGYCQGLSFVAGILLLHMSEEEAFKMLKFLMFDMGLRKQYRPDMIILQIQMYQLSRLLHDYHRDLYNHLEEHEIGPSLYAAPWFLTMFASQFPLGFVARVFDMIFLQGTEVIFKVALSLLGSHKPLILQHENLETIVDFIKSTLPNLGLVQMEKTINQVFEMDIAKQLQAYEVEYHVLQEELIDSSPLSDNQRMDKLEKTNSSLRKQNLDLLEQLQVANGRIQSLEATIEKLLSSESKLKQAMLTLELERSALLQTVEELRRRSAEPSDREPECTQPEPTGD

[3] = molecular target: T2, Flag-TBC1D1^S237A, from HepG2 cells (human) (UniProt Q86TI0); assay: as above
T2 sequence: T1 sequence with S237A

[4] = molecular target: Flag-Rab2A (wild type), stably expressed in HepG2 cells (UniProt P61019); assay: co-IP; HepG2 cells stably expressing the Flag-tagged protein, immunoprecipitated with anti-Flag beads, endogenous PPARγ detected by immunoblotting
[5] = molecular target: T1, Flag-TBC1D1 (wild type), stably expressed in HepG2 cells (human); assay: as above
[6] = molecular target: Flag-Rab2A^Q65L, expressed in HEK293T cells (UniProt P61019); assay: co-IP; HEK293T cells transfected with the indicated plasmids for 2 days, lysed, immunoprecipitated with anti-Flag beads, analysed by immunoblotting
[7] = molecular target: T3, Flag-Rab2A^S20N, expressed in HEK293T cells (UniProt P61019); assay: as above
T3 sequence: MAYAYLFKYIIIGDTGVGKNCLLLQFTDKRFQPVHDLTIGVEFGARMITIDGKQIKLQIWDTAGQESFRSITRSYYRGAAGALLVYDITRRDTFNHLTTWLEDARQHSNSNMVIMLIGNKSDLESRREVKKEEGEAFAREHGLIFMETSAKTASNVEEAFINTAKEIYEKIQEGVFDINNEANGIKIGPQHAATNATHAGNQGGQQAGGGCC

[8] = molecular target: T4, Flag-TBC1D1 (wild type), expressed in HEK293T cells (human) (UniProt Q86TI0); assay: as above
T4 sequence: T1 sequence

binding [1]: binds
binding [2]: binds
binding [3]: binds
Substance: GST-PPARγ2 (from UniProt P37231-1 1-505)

binding [4]: binds
binding [5]: binds
Substance: endogenous PPARγ of HepG2 cells (from UniProt P37231 1-505)

binding [6]: binds
binding [7]: no binding
binding [8]: binds
Substance: PPARγ2-MYC, expressed in HEK293T cells (from UniProt P37231-1 1-505)
